Measured values reported in publication PMC7819943, “Rice protein-binding microarrays: a tool to detect cis-acting elements near promoter regions in rice”.
This is one part of the list.

Each sequence was assayed against T1, OsWOX13 (Oryza sativa, UniProt Q5QMM3 1-267) (assay: protein-binding microarray (RPBM); PBS, 2% BSA, 51.3 ng/ul salmon testes DNA, 50 uM zinc acetate, 200 nM TF, 25 C, 1 h; high values mean tight binding). Details: protein: recombinant; tags: N-terminal polyhistidine and DsRed monomer fusion (pET32a); label: CyDye5-dUTP incorporated in the synthesized complementary strand; 3' TTTTT single-stranded linker to array surface; dsDNA, one strand shown.
T1 sequence: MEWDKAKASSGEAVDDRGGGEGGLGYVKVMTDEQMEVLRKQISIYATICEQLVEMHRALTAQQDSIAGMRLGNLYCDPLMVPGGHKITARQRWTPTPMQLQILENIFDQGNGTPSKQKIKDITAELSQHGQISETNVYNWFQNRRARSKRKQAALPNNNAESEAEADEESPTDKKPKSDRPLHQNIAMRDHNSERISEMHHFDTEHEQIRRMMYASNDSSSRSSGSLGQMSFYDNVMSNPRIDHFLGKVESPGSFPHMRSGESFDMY
Method in brief: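 Binding signal is defined as the fluorescence intensity of each feature in arbitrary units, read on an Axon 4000B scanner. Transcription factors with N-terminal polyhistidine and DsRed fusions came from E. coli BL21-CodonPlus and were purified on Ni–NTA. They were incubated at 200 nM for 1 h at 25 °C on a custom Agilent array that had been made double-stranded with Cy5-dUTP, with 50 µM zinc acetate present, and the array was washed.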

Row | Sequence | binding signal
1 | AAATATAATTATGTTTACACCTACTTTCATATCTCAACAACGGAGTCACCTAGTGCAG | 14400 fluorescence intensity (a.u.)
2 | CACACAAATTACAAACCAAACAGAGAGAGAAAGACAGAGGCGGAGTCACCTAGTGCAG | 4190 fluorescence intensity (a.u.)
3 | AATAATTAGTGCAGGAAATGTTAACATAAAATTTGAAAATCGGAGTCACCTAGTGCAG | 6380 fluorescence intensity (a.u.)
4 | CCTCCACTAATTAACAAAAGGAAATAGTAATACCCAAGCGCGGAGTCACCTAGTGCAG | 22700 fluorescence intensity (a.u.)
5 | AATATAAATTTAGATTAGCAGTGGTAAGAAGAGGGACGTCCGGAGTCACCTAGTGCAG | 22600 fluorescence intensity (a.u.)
6 | CAACATTAAATTAACCTCCAGTTTGTTAGTCTTCTCATTTCGGAGTCACCTAGTGCAG | 5720 fluorescence intensity (a.u.)
7 | CGCGTGATGCTAATTATTGAAAGGCAAAGCGCTCCGAAATCGGAGTCACCTAGTGCAG | 11900 fluorescence intensity (a.u.)
8 | TTTTATAATTATTTAGGTCTCATGCACAAAACAAGAGGATCGGAGTCACCTAGTGCAG | 9910 fluorescence intensity (a.u.)
9 | CTCTACTGATTTTGATTCTTGACAGAAACAAGAGATAGGGCGGAGTCACCTAGTGCAG | 17400 fluorescence intensity (a.u.)
10 | CCAATAAATTAATTTCCCTCAATCCGGTATGTTGGTCACACGGAGTCACCTAGTGCAG | 41800 fluorescence intensity (a.u.)
11 | AATTTAACAAATTCTAATCAAGTAGCCATCTAGCTGTACGCGGAGTCACCTAGTGCAG | 14000 fluorescence intensity (a.u.)
12 | AATGCTTGATTGCACTTCGCTGTTCAGTTCATCATGCCTACGGAGTCACCTAGTGCAG | 27400 fluorescence intensity (a.u.)
13 | CATCGAACATCATGAATTTGATTGGCTTCTACTTTCACGACGGAGTCACCTAGTGCAG | 17100 fluorescence intensity (a.u.)
14 | TATACGATTGGAAACATCACGGACTCTTTACTGTCAGTTTCGGAGTCACCTAGTGCAG | 3340 fluorescence intensity (a.u.)
15 | GCTAAATTAAATCTGCTCGCCATTTTCGAATTTATTCAGACGGAGTCACCTAGTGCAG | 10800 fluorescence intensity (a.u.)
16 | ATTAATTTGTAACTTTTATAATTTTAGATCACATTTCGCACGGAGTCACCTAGTGCAG | 35700 fluorescence intensity (a.u.)
17 | GTCATGTGATTGATGATTCAGCATCCCTTGAGGCTCAGTGCGGAGTCACCTAGTGCAG | 53600 fluorescence intensity (a.u.)
18 | ATCATTGTGTAATTAGGCTCAAAAGATTTGTCTCGCGATTCGGAGTCACCTAGTGCAG | 3750 fluorescence intensity (a.u.)
19 | GCTTTGATGATGCACTCATCACCTTCACACGTCGGATCTACGGAGTCACCTAGTGCAG | 4220 fluorescence intensity (a.u.)
20 | TGATTAACAGCAACCATAGACGGGACAGGCCAGCCCACCACGGAGTCACCTAGTGCAG | 3260 fluorescence intensity (a.u.)
21 | CACACTAACATAATTGAAAACTTGTATCTTACCCAAACCGCGGAGTCACCTAGTGCAG | 27000 fluorescence intensity (a.u.)
22 | CAAATTAACTGGAAATTTTGAAGCATCCATGTTCTGTGAGCGGAGTCACCTAGTGCAG | 46600 fluorescence intensity (a.u.)
23 | TGCAGAGCACCAATCAATCCTTCCTCCCAGCCAAGATCTTCGGAGTCACCTAGTGCAG | 6820 fluorescence intensity (a.u.)
24 | TTCAAATTGATGTTAATGGAAATGGAGGAAGTAGTACTGTCGGAGTCACCTAGTGCAG | 51000 fluorescence intensity (a.u.)
25 | TATAGTCATTAATTAATTAGTCCATATATATATAGTACATCGGAGTCACCTAGTGCAG | 20000 fluorescence intensity (a.u.)
26 | AATTAGATTAATATGTTATGTTTCTGTCCACTGCTAGAGACGGAGTCACCTAGTGCAG | 21300 fluorescence intensity (a.u.)
27 | TTCGATTGGTGTGGATTGAGATGAGATGAGATGACTCGTGCGGAGTCACCTAGTGCAG | 22400 fluorescence intensity (a.u.)

Row | Sequence | binding signal
28 | TCTCAATCAGCGGGACAGTAAGTAAATCCACATCAACAGCCGGAGTCACCTAGTGCAG | 14600 fluorescence intensity (a.u.)
29 | ATACCGATCAATCAGTTCCTAAAAGATTTGTACTCTACAGCGGAGTCACCTAGTGCAG | 13100 fluorescence intensity (a.u.)
30 | GTCTTCCGTCCCTTTCCCTCCTCACTTCAACCCTTCAATCCGGAGTCACCTAGTGCAG | 3260 fluorescence intensity (a.u.)
31 | GTGGTGAATAGATAGATAGTGCGCGCTTCGGCCGGTCCCCCGGAGTCACCTAGTGCAG | 4850 fluorescence intensity (a.u.)
32 | TTAATCTGATTAACGTGCATGCACATATATACGAGCTGTGCGGAGTCACCTAGTGCAG | 15800 fluorescence intensity (a.u.)
33 | TGAGCATAATTACGCCATGATTTGACAATATTATGCTACACGGAGTCACCTAGTGCAG | 28100 fluorescence intensity (a.u.)
34 | GAATATGTAATAGATCATGATTTGGATATTACGTTTCCTTCGGAGTCACCTAGTGCAG | 8270 fluorescence intensity (a.u.)
35 | AAGAGTTTAAATTTTAAAATGATTTTATAAGTGGTTAACCCGGAGTCACCTAGTGCAG | 7500 fluorescence intensity (a.u.)
36 | CTTAAACTTGACTGCAGCAGTAGTGAGCCCTTGGAGGATGCGGAGTCACCTAGTGCAG | 7230 fluorescence intensity (a.u.)
37 | AGTCAAATTGCACCGGTTTTAATAGTTAGGGGTCCAGACACGGAGTCACCTAGTGCAG | 3570 fluorescence intensity (a.u.)
38 | GCAGGTGATGAGATGAATTACCTTTTAACAATGTCGAGCACGGAGTCACCTAGTGCAG | 6200 fluorescence intensity (a.u.)
39 | TGGATTGATTCCCGGTTTCTTATTGTCTATATCATGAGTACGGAGTCACCTAGTGCAG | 26800 fluorescence intensity (a.u.)
40 | GACCAATCAGGAGACGAGGCCGGCGCCGTTTTCTTTTCCCCGGAGTCACCTAGTGCAG | 5750 fluorescence intensity (a.u.)
41 | GCTTAATTACATGGGAGAGGCTTTGTTTCTTGTTTATTTTCGGAGTCACCTAGTGCAG | 18000 fluorescence intensity (a.u.)
42 | GTCATGATTTGACAATGTGGTGCTACAGTAAACATTTGCTCGGAGTCACCTAGTGCAG | 33600 fluorescence intensity (a.u.)
43 | TAATAGATAGATAGATAGATAGATAGATTAGTAATTTAGACGGAGTCACCTAGTGCAG | 30600 fluorescence intensity (a.u.)
44 | GATGATTGACGACAAGCCGATTGCCTTTCCCTTATCTGAACGGAGTCACCTAGTGCAG | 44500 fluorescence intensity (a.u.)
45 | CTTATTCCTTGATTTGTTCACCCCAAGGTCCAAATCACATCGGAGTCACCTAGTGCAG | 7140 fluorescence intensity (a.u.)
46 | TTCAAATTTTAAAATTTTATTTCTTAATACGCTCGTATGGCGGAGTCACCTAGTGCAG | 21800 fluorescence intensity (a.u.)
47 | ATCGTGATTTGAAGTCTCCAAATCTTCTAGTTGACAAGAACGGAGTCACCTAGTGCAG | 26900 fluorescence intensity (a.u.)
48 | CAGGCAGCTGCACCATAAGCTCAGTTGCAGCTTTTATATACGGAGTCACCTAGTGCAG | 6390 fluorescence intensity (a.u.)
49 | CTGTAATTTTGTGAAAATTTACTTTTATTCTGGGGTGGAGCGGAGTCACCTAGTGCAG | 18700 fluorescence intensity (a.u.)
50 | TTCCTCTGTTAATAACCAATTAATTCGTGATCAGCTCATCCGGAGTCACCTAGTGCAG | 29200 fluorescence intensity (a.u.)
51 | ATTTTAGTGATTAATTTAATTGGAAAAGTAAATTAAATTCCGGAGTCACCTAGTGCAG | 20500 fluorescence intensity (a.u.)
52 | GCTAAACTGTTTCAAGATCCTATACATGATCCATCCCACACGGAGTCACCTAGTGCAG | 3460 fluorescence intensity (a.u.)
53 | TCCACTAATATTAACCAATAGACAGATATACTATCACAGTCGGAGTCACCTAGTGCAG | 10800 fluorescence intensity (a.u.)
54 | GTCGTAATTGGTTAAGATGAAAGAGTAAGTAAAGAAATTACGGAGTCACCTAGTGCAG | 10800 fluorescence intensity (a.u.)
